Source: patent publication US20140271457A1 (AbbVie / Abbott, published 2014)
Residue numbers refer to the chain shown, from its start.

B1: DVD3009 (bispecific antibody, human IgG1, kappa)
heavy: EVQLVQSGAEVKKPGASVKVSCKASGYTFNNYGIIWVRQAPGQGLEWMGWINTYTGKPTYAQKFQGRVTMTTDTSTSTAYMELSSLRSEDTAVYYCARKLFNTVAVTDNAMDYWGQGTTVTVSSASTKGPEVTLRESGPGLVKPTQTLTLTCTLYGFSLSTSDMGVDWIRQPPGKGLEWLAHIWWDDVKRYNPALKSRLTISKDTSKNQVVLKLTSVDPVDTATYYCARTVSSGYIYYAMDYWGQGTLVTVSS[here human IgG1 constant region without letters]
light: DIQMTQSPSSLSASVGDRVTITCRASQDIENYLNWYQQKPGKAPKLLIYYTSRLQSGVPSRFSGSGSGTDFTLTISSLQPEDFATYFCQQGNTQPPTFGQGTKLEIKRTVAAPDIQMTQSPSSLSASVGDRVTISCRASQDIRNYLNWYQQKPGKAPKLLIFYTSKLHSGVPSRFSGSGSGTDYTLTISSLQPEDIATYYCQQGLTPPLTFGGGTKVEIKRTVAAPSVFIFPPSDEQLKSGTASVVCLLNNFYPREAKVQWKVDNALQSGNSQESVTEQDSKDSTYSLSSTLTLSKADYEKHKVYACEVTHQGLSSPVTKSFNRGEC
B2: DVD3011 (bispecific antibody, human IgG1, kappa)
heavy: B1 heavy
light: DIQMTQSPSSLSASVGDRVTITCRASQDIENYLNWYQQKPGKAPKLLIYYTSRLQSGVPSRFSGSGSGTDFTLTISSLQPEDFATYFCQQGNTQPPTFGQGTKLEIKRTVAAPSVFIFPPDIQMTQSPSSLSASVGDRVTISCRASQDIRNYLNWYQQKPGKAPKLLIFYTSKLHSGVPSRFSGSGSGTDYTLTISSLQPEDIATYYCQQGLTPPLTFGGGTKVEIKRTVAAPSVFIFPPSDEQLKSGTASVVCLLNNFYPREAKVQWKVDNALQSGNSQESVTEQDSKDSTYSLSSTLTLSKADYEKHKVYACEVTHQGLSSPVTKSFNRGEC
B3: DVD3012 (bispecific antibody, human IgG1, kappa)
heavy: EVQLVQSGAEVKKPGASVKVSCKASGYTFNNYGIIWVRQAPGQGLEWMGWINTYTGKPTYAQKFQGRVTMTTDTSTSTAYMELSSLRSEDTAVYYCARKLFNTVAVTDNAMDYWGQGTTVTVSSASTKGPSVFPLAPEVTLRESGPGLVKPTQTLTLTCTLYGFSLSTSDMGVDWIRQPPGKGLEWLAHIWWDDVKRYNPALKSRLTISKDTSKNQVVLKLTSVDPVDTATYYCARTVSSGYIYYAMDYWGQGTLVTVSS[here human IgG1 constant region without letters]
light: B1 light
B4: DVD3143 (bispecific antibody, human IgG1, kappa)
heavy: EVQLVESGGGLVQPGGSLRLSCAASGFTFSNYGVTWVRQAPGKGLEWVSMIWADGSTHYASSVKGRFTISRDNSKNTLYLQMNSLRAEDTAVYYCAREWQHGPVAYWGQGTLVTVSSGGGGSGGGGSEVQLVQSGAEVKKPGASVKVSCKASGYTFTSYWMHWVRQAPGQGLEWIGNINPKGGSNIYNEKFQGRVTMTRDTSISTAYMELSRLRSDDTAVYYCARLDYFGDSFDLWGQGTTVTVSS[here human IgG1 constant region without letters]
light: DIQMTQSPSSLSASVGDRVTITCRASQLVSSAVAWYQQKPGKAPKLLIYWASARHTGVPSRFSGSGSGTDFTLTISSLQPEDFATYYCQQHYKTPFTFGQGTKLEIKRGGSGGGGSGDIQMTQSPSSLSASVGDRVTITCRASQGIRNYLNWYQQKPGKAPKLLIYYASNLEVGVPSRFSGSGSGTDYTLTISSLQPEDFATYYCQQDNRFPYTFGGGTKVEIKRTVAAPSVFIFPPSDEQLKSGTASVVCLLNNFYPREAKVQWKVDNALQSGNSQESVTEQDSKDSTYSLSSTLTLSKADYEKHKVYACEVTHQGLSSPVTKSFNRGEC
B5: DVD3153 (bispecific antibody, human IgG1, kappa)
heavy: B4 heavy with T35E, M50G, S61D, S62T, G65S
light: B4 light with R24K, A53T, R54L, K93R

Target: Recombinant Human IL-13 (human, UniProt P35225 part only, limits assumed)
Test: cell-based or functional assay

Sequence of UniProt P35225 (P35225 35-146 limits assumed): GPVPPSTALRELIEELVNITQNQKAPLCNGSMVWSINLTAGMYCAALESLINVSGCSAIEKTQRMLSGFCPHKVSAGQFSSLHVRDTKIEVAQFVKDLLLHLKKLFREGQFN

Row | Binder | IL-13 Neutralization Assay IC50
1 | B1 | 0.563 nM
2 | B2 | 0.242 nM
3 | B3 | 0.207 nM
4 | B4 | 0.057 nM
5 | B5 | 0.064 nM
